Test results taken from PubChem BioAssay (Tox21).
Several values for one entry are separate records, joined by “and”; a condition that tells them apart may be missing. Equal values may be shown once. The inconclusive results got no clear call from the source; some entries with a clear call stand among them for comparison. For part of these data: Where the call is inconclusive, the potency comes from a doubtful curve fit. Some compounds were tested as several samples or in several runs, with calls that do not always agree. Activity calls are given as the source filed them. Unless noted, calls come from the whole dose curve; as a rule, active = well fitted curve in the direction sought with a large enough effect in the repeat runs; inconclusive = weak or mixed curves; inactive = no such curve, though single readings can be large; an effect the other way counts as inactive or inconclusive.

Columns and labels:
[1] = qHTS assay for identifying genotoxic compounds that show differential cytotoxicity against isogenic chicken DT40 cell lines with known DNA damage response pathways - Rev3 mutant cell line (AID 743014); details: chicken DT40 Rev3-/- viability, CellTiter-Glo, 40 h; activity, negative = cytotoxicity: at 68.4 µM (top of the series); note: nearly all actives have a fitted effect of over 55% in size; note: potency is the fitted concentration of half-maximal effect; for activity, negative = cytotoxicity: % is set by controls: 0 for no effect and ±100 for the full control effect
[2] = biological target: Estrogen receptor (Homo sapiens) (UniProt P03372); experiment: qHTS assay to identify small molecule antagonists of the estrogen receptor alpha (ER-alpha) signaling pathway (AID 743069; active = well fitted curve in the direction sought with a large enough effect in the signal ratio in the repeat runs, not every such curve was filed as active; inconclusive = weak or mixed curves, or effect the other way; inactive = no such curve, though single readings can be large or run the other way; the % refers to the signal ratio; note: potency is the fitted concentration of half-maximal effect; for activity, negative = inhibition: % is set by controls: 0 for no effect and ±100 for the full control effect); details: HEK293 ER-alpha-UAS-bla, beta-lactamase ratio, antagonist mode; activity, negative = inhibition: at 69.4 µM (top of the series) unless noted
Procedure, shortened: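 HEK293 ER-alpha-UAS-bla GripTite cells, held overnight in 2% charcoal-stripped FBS, 5,000 cells/well, preincubated 4 h, then compound plus 17beta-estradiol for 18 h at 37C. Beta-lactamase read by LiveBLAzer B/G FRET substrate, 2 h at room temperature.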

[3] = qHTS assay for identifying genotoxic compounds that show differential cytotoxicity against isogenic chicken DT40 cell lines with known DNA damage response pathways - Rad54/Ku70 mutant cell line (AID 743015); details: DT40 Rad54/Ku70 mutant viability, CellTiter-Glo, 40 h; activity change, negative = cytotoxicity: at 66.8 µM (top of the series); note: potency is the fitted concentration of half-maximal effect; nearly all actives have a fitted effect of over 60% in size
[4] = qHTS assay to identify small molecule antagonists of the androgen receptor (AR) signaling pathway - cell viability counter screen (AID 743033; note: potency is the fitted concentration of half-maximal effect; nearly all actives have a fitted effect of over 45% in size); details: AR-bla HEK293 viability, CellTiter-Glo luminescence, 16 h; activity change, negative = cytotoxicity: at 58.5 µM (top of the series) unless noted
[5] = qHTS assay to identify small molecule antagonists of the androgen receptor (AR) signaling pathway using the MDA cell line - cell viability counter screen (AID 743041; note: potency is the fitted concentration of half-maximal effect; nearly all actives have a fitted effect of over 45% in size); details: MDA-kb2 viability, CellTiter-Fluor, 16 h, cells co-treated with R1881 androgen agonist; viability change, negative = cytotoxic: at 70.3 µM (top of the series) unless noted
Procedure, shortened: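 MDA-kb2 AR-luc cells (MMTV-luciferase, AR/GR responsive) treated with compounds plus R1881 agonist for 16 h at 37C. CellTiter-Fluor added at 15.5 h; fluorescence read after 30 min in the same wells.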

[6] = qHTS assay to identify small molecule antagonists of the thyroid receptor (TR) signaling pathway - cell viability counter screen (AID 743064); details: GH3.TRE-Luc viability, CellTiter-Fluor, 24 h; activity change, negative = cytotoxic: at 70.3 µM (top of the series) unless noted; note: potency is the fitted concentration of half-maximal effect; nearly all actives have a fitted effect of over 50% in size
Procedure, shortened: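 Rat GH3 pituitary tumor cells stably expressing two TR response elements driving luciferase were plated, rested 4 h, then dosed with library compounds and T3 (1 nM final). After 23.5 h at 37 °C, CellTiter-Fluor was added for 30 min and fluorescence recorded.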

[7] = biological target: Estrogen receptor (Homo sapiens) (UniProt P03372); experiment: qHTS assay to identify small molecule agonists of the estrogen receptor alpha (ER-alpha) signaling pathway (AID 743075; calls by dose curve; note: potency is the fitted concentration of half-maximal effect; for activation: % is set by controls: 0 for no effect and ±100 for the full control effect); details: HEK293 ER-alpha-UAS-bla, beta-lactamase FRET ratio, 18 h; series mostly up to 70.1 µM
[8] = biological target: Estrogen receptor (Homo sapiens) (UniProt P03372); experiment: qHTS assay to identify small molecule agonists of the estrogen receptor alpha (ER-alpha) signaling pathway using the BG1 cell line (AID 743079); details: BG1Luc4E2 cells, ERE-luciferase agonist, 22 h; activation: at 70.3 µM (top of the series) unless noted; note: nearly all actives have a fitted effect of over 20% in size; note: potency is the fitted concentration of half-maximal effect
[9] = qHTS assay to identify small molecule antagonists of the estrogen receptor alpha (ER-alpha) signaling pathway using the BG1 cell line (AID 743080; calls by dose curve;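 note: BG1 cells stimulated with 17beta-estradiol alongside compound; nearly all actives have a fitted effect of over 25% in size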; note: potency is the fitted concentration of half-maximal effect); details: BG1Luc4E2 ERE-luciferase antagonist mode, luminescence; activity change, negative = inhibition: at 70.3 µM (top of the series) unless noted
Procedure, shortened: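 Seeding, 24 h rest, compound transfer from DMSO, 17beta-estradiol addition, 21.5 h incubation, CellTiter-Fluor (30 min, 37 C), then ONE-Glo (30 min, room temperature): this sequence was run on BG1-Luc-4E2 reporter cells.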

Aromatase (Homo sapiens) = Aromatase (Homo sapiens) (UniProt P11511); experiment: qHTS assay to identify aromatase inhibitors (AID 743083); details: MCF-7 aro ERE, testosterone-driven ERE luciferase, 24 h; activity, negative = inhibition: at 70.3 µM (top of the series); note: potency is the fitted concentration of half-maximal effect; nearly all actives have a fitted effect of over 55% in size
[10] = biological target: Androgen receptor (Homo sapiens) (UniProt P10275); experiment: qHTS assay to identify small molecule antagonists of the androgen receptor (AR) signaling pathway (AID 743035; active = well fitted inhibition curve with a large enough effect in the signal ratio in the repeat runs, not every such curve was filed as active; inconclusive = weak or mixed curves, or effect the other way; inactive = no such curve, though single readings can be large or run the other way; the % refers to the signal ratio; note: % is set by controls: 0 for no effect and ±100 for the full control effect); details: HEK293 AR-UAS-bla, R1881-stimulated, beta-lactamase FRET, 16 h; activity change, negative = inhibition: at 58.5 µM (top of the series) unless noted
Procedure, shortened: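 Using qHTS, AR-UAS-bla GripTite HEK293 cells received compound, then R1881, and were cultured 16 h at 37C/5% CO2 before a 2 h room-temperature LiveBLAzer B/G FRET substrate step and fluorescence measurement.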

[11] = biological target: Androgen receptor (Homo sapiens) (UniProt P10275); experiment: qHTS assay to identify small molecule agonists of the androgen receptor (AR) signaling pathway (AID 743036; active = well fitted activation curve with a large enough effect in the signal ratio in the repeat runs, with a control signal flat, not every such curve was filed as active; inconclusive = weak or mixed curves, or effect the other way; inactive = no such curve, though single readings can be large or run the other way; the % refers to the signal ratio; note: potency is the fitted concentration of half-maximal effect); details: HEK293 AR-UAS-bla GripTite, beta-lactamase FRET ratio, 16 h; activation: at 62.4 µM (top of the series) unless noted
Procedure, shortened: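 Quantitative HTS of the Tox21 10K library in HEK293 cells bearing a stably integrated UAS-controlled beta-lactamase reporter. Compound exposure lasted 16 h at 37C. Reporter activity was detected by FRET substrate fluorescence after 2 h at room temperature.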

[12] = biological target: Androgen receptor (Homo sapiens) (UniProt P10275); experiment: qHTS assay to identify small molecule antagonists of the androgen receptor (AR) signaling pathway using the MDA cell line (AID 743042; note: potency is the fitted concentration of half-maximal effect; nearly all actives have a fitted effect of over 55% in size); details: MDA-kb2 AR-luc, MMTV luciferase, R1881 antagonist, 16 h; series mostly up to 70.3 µM
Procedure, shortened: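 MDA-kb2 breast carcinoma cells carrying MMTV-luciferase (AR/GR responsive) were co-treated with compounds and the agonist R1881 for 16 h at 37C. Inhibition read as ONE-Glo luminescence; CellTiter-Fluor fluorescence measured in parallel for cytotoxicity.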

[13] = qHTS assay to identify small molecule antagonists of the estrogen receptor alpha (ER-alpha) signaling pathway using the BG1 cell line - cell viability counter screen (AID 743081); details: BG1Luc4E2 viability, CellTiter-Fluor, 22 h; activity change, negative = cytotoxicity: at 70.3 µM (top of the series) unless noted;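 note: compound given together with 17beta-estradiol as the ER stimulus; nearly all actives have a fitted effect of over 45% in size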; note: potency is the fitted concentration of half-maximal effect
[14] = qHTS assay to identify small molecule antagonists of the estrogen receptor alpha (ER-alpha) signaling pathway - cell viability counter screen (AID 743074; calls by dose curve;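 note: HEK293 cells carrying ER-alpha-UAS-bla reporter stimulated with 17beta-estradiol; potency is the fitted concentration of half-maximal effect; nearly all actives have a fitted effect of over 45% in size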); details: ERalpha-bla HEK293 viability, CellTiter-Glo luminescence, 18 h; series mostly up to 69.4 µM
[15] = qHTS assay to identify small molecule antagonists of the thyroid receptor (TR) signaling pathway (AID 743065); details: GH3.TRE-Luc, T3-stimulated luciferase inhibition, 23.5 h; series mostly up to 70.3 µM; note: potency is the fitted concentration of half-maximal effect; nearly all actives have a fitted effect of over 55% in size
Procedure, shortened: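 GH3.TRE-Luc rat pituitary cells (two TREs driving luciferase) were dosed with compound, then stimulated with 1 nM T3 (final) for 23.5 h at 37 C. ONE-Glo luminescence was the read-out, with CellTiter-Fluor fluorescence as the cytotoxicity counter-screen.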

[16] = test system: thyroid hormone receptor (rat, GH3 cells); experiment: qHTS assay to identify small molecule agonists of the thyroid receptor (TR) signaling pathway (AID 743066; calls by dose curve; note: potency is the fitted concentration of half-maximal effect); details: GH3.TRE-Luc cells, TR agonist luciferase, 24 h; activation: at 83.9 µM (top of the series) unless noted
Tags give direction and shape of the fitted curve or compound fluorescence and quenching.

Sequence of UniProt P03372 (P03372 whole entry, looked up): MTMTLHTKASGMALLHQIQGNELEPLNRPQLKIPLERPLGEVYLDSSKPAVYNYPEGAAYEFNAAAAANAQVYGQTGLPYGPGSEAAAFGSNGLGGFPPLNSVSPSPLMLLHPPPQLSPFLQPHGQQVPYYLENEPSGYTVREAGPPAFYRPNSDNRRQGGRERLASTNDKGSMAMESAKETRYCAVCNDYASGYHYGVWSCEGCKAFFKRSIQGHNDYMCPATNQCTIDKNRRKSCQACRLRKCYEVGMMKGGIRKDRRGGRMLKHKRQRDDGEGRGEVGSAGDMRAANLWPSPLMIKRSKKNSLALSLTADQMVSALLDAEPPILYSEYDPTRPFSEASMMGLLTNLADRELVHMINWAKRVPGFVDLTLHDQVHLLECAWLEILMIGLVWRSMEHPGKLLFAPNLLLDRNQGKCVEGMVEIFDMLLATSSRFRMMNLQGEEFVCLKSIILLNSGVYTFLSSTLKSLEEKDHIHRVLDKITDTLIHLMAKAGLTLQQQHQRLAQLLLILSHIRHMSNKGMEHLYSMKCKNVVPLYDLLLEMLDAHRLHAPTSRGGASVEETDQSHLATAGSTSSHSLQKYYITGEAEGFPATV
Sequence of UniProt P11511 (P11511 whole entry, looked up): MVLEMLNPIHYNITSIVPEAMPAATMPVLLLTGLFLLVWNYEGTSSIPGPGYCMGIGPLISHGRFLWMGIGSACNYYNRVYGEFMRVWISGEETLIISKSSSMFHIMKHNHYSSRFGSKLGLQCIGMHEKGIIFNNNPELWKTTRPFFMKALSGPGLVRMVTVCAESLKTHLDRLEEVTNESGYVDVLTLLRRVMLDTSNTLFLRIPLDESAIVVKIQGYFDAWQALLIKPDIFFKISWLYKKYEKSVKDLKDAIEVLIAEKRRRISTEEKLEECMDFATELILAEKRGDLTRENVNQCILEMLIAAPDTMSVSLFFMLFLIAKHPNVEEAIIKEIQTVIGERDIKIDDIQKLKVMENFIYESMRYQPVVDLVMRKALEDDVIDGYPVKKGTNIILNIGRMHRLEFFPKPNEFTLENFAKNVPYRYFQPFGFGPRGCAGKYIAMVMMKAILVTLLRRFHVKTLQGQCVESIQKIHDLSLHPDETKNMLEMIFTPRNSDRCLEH
Sequence of UniProt P10275 (P10275 whole entry, looked up): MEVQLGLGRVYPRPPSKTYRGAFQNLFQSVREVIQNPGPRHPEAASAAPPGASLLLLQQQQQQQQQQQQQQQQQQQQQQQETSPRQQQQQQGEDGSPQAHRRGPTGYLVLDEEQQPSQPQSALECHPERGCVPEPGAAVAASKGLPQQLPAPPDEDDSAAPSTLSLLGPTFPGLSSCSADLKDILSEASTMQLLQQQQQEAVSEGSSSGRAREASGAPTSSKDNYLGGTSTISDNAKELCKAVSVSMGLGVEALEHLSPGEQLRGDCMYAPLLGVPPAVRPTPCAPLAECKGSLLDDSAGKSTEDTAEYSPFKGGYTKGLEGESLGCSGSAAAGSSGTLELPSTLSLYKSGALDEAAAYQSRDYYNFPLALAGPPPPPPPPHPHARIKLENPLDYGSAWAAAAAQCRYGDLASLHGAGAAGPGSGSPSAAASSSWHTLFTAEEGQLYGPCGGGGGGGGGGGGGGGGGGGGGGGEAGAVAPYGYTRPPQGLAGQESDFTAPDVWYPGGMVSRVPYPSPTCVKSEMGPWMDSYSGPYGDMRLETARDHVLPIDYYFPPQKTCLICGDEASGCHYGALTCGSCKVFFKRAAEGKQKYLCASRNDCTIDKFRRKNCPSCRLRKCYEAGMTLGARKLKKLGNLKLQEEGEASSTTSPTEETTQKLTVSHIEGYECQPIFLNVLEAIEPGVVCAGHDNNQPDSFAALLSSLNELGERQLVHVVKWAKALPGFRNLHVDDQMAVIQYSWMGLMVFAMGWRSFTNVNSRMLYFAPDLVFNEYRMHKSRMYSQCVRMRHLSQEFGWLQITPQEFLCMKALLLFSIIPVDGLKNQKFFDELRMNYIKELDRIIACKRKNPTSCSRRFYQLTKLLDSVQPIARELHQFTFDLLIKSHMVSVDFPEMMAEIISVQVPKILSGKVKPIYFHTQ

In the case of `O=[N+]([O-])c1ccc2nc[nH]c2c1`, the Potency [1] is reported as inconclusive: 27.3 µM [cytotoxic, partial curve, poor fit] and the Potency [2] is reported as inconclusive: 35.4 µM [activator, partial curve, poor fit].

In the case of `Cc1occc1S`, the Potency [3] is reported as inconclusive: 68.6 µM [cytotoxic, single point].

With `CCOC(=O)NCCOc1ccc(Oc2ccccc2)cc1` the Potency [3] was active: 61.1 µM, the Potency [4] was inconclusive: 21.9 µM [cytotoxic, partial curve, poor fit] and the Potency [5] was inconclusive: 61.1 µM [cytotoxic, single point]. For the same compound, the Potency [6] was inconclusive: 15.4 µM [rising, partial curve, poor fit], the Potency [2] was active: 38.9 µM [inhibitor] and the Potency [7] was inconclusive: 4.36 µM [falling, full curve, poor fit]. For the same compound, the Potency [8] was inconclusive: 48.6 µM [inhibitor, partial curve], the Potency [9] was active: 61.1 µM and the Potency (Aromatase (Homo sapiens)) was inconclusive: 77 µM [inhibitor, single point].

For `O=S(=O)(c1cccc2cnccc12)N1CCCNCC1`, the Potency [1] was “inactive”, the Potency [2] was “inactive” and the Potency [8] was inconclusive: 11.9 µM [inhibitor, partial curve]. The Potency (Aromatase (Homo sapiens)) was active: 13.3 µM.

With `COc1cc(C(C)C)c2c(c1)S(=O)(=O)N(COc1cc(=O)n3cccc(OCCN4CCCCC4)c3n1)C2=O` the Potency [3] was active: 13 µM, the Potency [4] was inconclusive: 10.4 µM [cytotoxic, partial curve] and the activity change, negative = inhibition [10] was inconclusive: -37.5% [at 27 µM]. The Potency [11] was inconclusive: 11.7 µM [activator], the Potency [12] was inconclusive: 9.2 µM [inhibitor, partial curve, poor fit] and the Potency [6] was inconclusive: 16.4 µM [cytotoxic, single point]. For the same compound, the Potency [2] was inconclusive: 0.233 µM [activator, full curve, poor fit], the Potency [7] was “inactive” and the Potency [8] was “inactive”. For the same compound, the Potency (Aromatase (Homo sapiens)) was inconclusive: 16.4 µM [inhibitor, single point].

In the case of `CCCCCCCCC(=O)OCC(C)OC(=O)CCCCCCCC` (centres undefined), the Potency [3] is reported as inconclusive: 28.6 µM [cytotoxic, partial curve, poor fit].

For `Cc1ccc(N)cc1S(=O)(=O)O`, the Potency [3] was inconclusive: 68.6 µM [cytotoxic, single point].

With `CCCCCCCCCOC(=O)CCCCC(=O)OCCCCCCC` the Potency [1] was “inactive” and the Potency [13] was “inactive”.

For `CN(C)CCCN(C)CCCN(C)C`, the Potency [1] was “inactive”, the Potency [7] was “inactive” and the Potency [8] was inconclusive: 15.4 µM [inhibitor, single point].

In the case of `O=CCCc1ccccc1`, the Potency [1] is reported as inconclusive: 77 µM [cytotoxic, single point] and the Potency [14] is reported as inconclusive: 219 nM [rising, full curve, poor fit].

In the case of `CN(C)c1ccc(C(=C2C=CC(=[N+](C)C)C=C2)c2ccc(N(C)C)cc2)cc1`, the Potency [3] is reported as active: 422 nM and active: 483 nM and active: 193 nM, the Potency [4] is reported as active: 1.69 µM and active: 1.37 µM and active: 347 nM and the Potency [6] is reported as active: 1.88 µM and active: 859 nM and active: 8.63 µM. The Potency [15] was active: 1.33 µM and active: 431 nM and active: 545 nM, the Potency [16] was inconclusive: 1.08 µM [inhibitor, partial curve, poor fit] and inconclusive: 864 nM [inhibitor, partial curve, poor fit] and the activation [16] was inconclusive: -9.01% [phenotype inactive]. The Potency [14] was active: 10.7 µM and active: 8.67 µM and active: 24.5 µM, the Potency [8] was inconclusive: 3.76 µM [inhibitor, full curve] and inconclusive: 2.42 µM [inhibitor, full curve] and inconclusive: 4.86 µM [inhibitor] and the Potency [13] was active: 13.3 µM and active: 12.1 µM and active: 24.3 µM.

With `CCCCN1C(=O)c2ccccc2C1=O` the Potency [1] was “inactive” and the Potency [9] was “inactive”.

For `CCc1ccc(O)c(C(C)(C)C)c1`, the Potency [3] was active: 30.6 µM, the Potency [4] was inconclusive: 38.9 µM [cytotoxic, partial curve] and the Potency [7] was inconclusive: 61.6 µM. For the same compound, the Potency [8] was active: 27.3 µM and the Potency [13] was “inactive”.

In the case of `CCCCCCC(C)O` (centres undefined), the Potency [3] is reported as inconclusive: 55.6 µM [cytotoxic, partial curve], the Potency [16] is reported as active: 55.6 µM and the Potency [7] is reported as “inactive”.
